Results reported in the supplement of paper PMC12217912.
The list shows a part of the results. Sequences were assembled here from the parent chain. Inactive controls read about 0.05.

B1: TEV protease; numbered along this chain (parent)
chain: MGESLFKGPRDYNPISSSICHLTNESDGHTTSLYGIGFGPFIITNKHLFRRNNGTLVVQSLHGVFKVKDTTTLQQHLVDGRDMIIIRMPKDFPPFPQKLKFREPQREERICLVTTNFQTKSMSSMVSDTSCTFPSGDGIFWKHWIQTKDGQCGSPLVSTRDGFIVGIHSASNFTNTNNYFTSVPKNFMELLTNQEAQQWVSGWRLNADSVLWGGHKVFMVKPEEPFQPVKEATQL

Variants of: B1
Experiment: raw area under fraction-flipped curve 0-4 h after induction (AUC4h, not background-subtracted), DNA-recorder readout of cleavage of the substrate (dimensionless); higher = more cleavage of the substrate by the protease variant
Details: temperature: 34 °C; time window: 0-4 h after rhamnose induction
Experimental: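 In vivo DNA recorder in E. coli TOP10(DE3) ΔrhaA at 34 °C. Each TEVp single-site mutant (parent TEVp 0) is paired with a single-site variant of the 7-mer TEVs (canonical ENLYFQ|S). The substrate sits between flexible linkers in a Bxb1-sfGFP-TEVs-SsrA fusion, so cleavage stabilises Bxb1 and speeds flipping of a recombination array, read by NGS. The value is the raw area under the fraction-flipped curve over 0-4 h after rhamnose induction (AUC4h), with ≥20 reads per time point. It is not background-subtracted; inactive controls average about 0.047.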
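Also: Bxb1 expression induced with 0.2% (w/v) L-rhamnose at OD600 near 0.5, cultures sampled hourly, flipped fraction per protease–substrate barcode pair counted by paired-end Illumina sequencing.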

MGESLFKGPRDYNPISSSICHLTNESDGHTTSLYGIGFGPFIITNKDLFRRNNGTLVVQSLHGVFKVKDTTTLQQHLVDGRDMIIIRMPKDFPPFPQKLKFREPQREERICLVTTNFQTKSMSSMVSDTSCTFPSGDGIFWKHWIQTKDGQCGSPLVSTRDGFIVGIHSASNFTNTNNYFTSVPKNFMELLTNQEAQQWVSGWRLNADSVLWGGHKVFMVKPEEPFQPVKEATQL [H47D]
area with substrate ANLYFQS: 0.0636
area with substrate CNLYFQS: 0.0638
area with substrate DNLYFQS: 0.0553
area with substrate GNLYFQS: 0.0981
area with substrate HNLYFQS: 0.0504
area with substrate INLYFQS: 0.0565
area with substrate LNLYFQS: 0.0654
area with substrate NNLYFQS: 0.0552
area with substrate RNLYFQS: 0.044
area with substrate SNLYFQS: 0.0617
area with substrate TNLYFQS: 0.054
area with substrate VNLYFQS: 0.0617
area with substrate WNLYFQS: 0.052
area with substrate YNLYFQS: 0.0621

MGESLFKGPRDYNPISSSICHLTNESDGHTTSLYGIGFGPFIITNKHLFRRNNGTLVVQSLHGVFKVKDTTTLQQHLVDGRDMIIIRMPKDFPPFPQKLKFREPQREERICLVTTNFQTKSMSSMVSDTSCTFPSGRGIFWKHWIQTKDGQCGSPLVSTRDGFIVGIHSASNFTNTNNYFTSVPKNFMELLTNQEAQQWVSGWRLNADSVLWGGHKVFMVKPEEPFQPVKEATQL [D137R]
area with substrate ANLYFQS: 0.0774
area with substrate CNLYFQS: 0.0445
area with substrate DNLYFQS: 0.0892
area with substrate FNLYFQS: 0.0588
area with substrate GNLYFQS: 0.0553
area with substrate HNLYFQS: 0.0461
area with substrate KNLYFQS: 0.0784
area with substrate MNLYFQS: 0.0636
area with substrate RNLYFQS: 0.0623
area with substrate TNLYFQS: 0.123
area with substrate VNLYFQS: 0.066
area with substrate WNLYFQS: 0.0608
area with substrate YNLYFQS: 0.0674

MGESLFKGPRDYNPISSSICHLTNESDGHTTSLYGIGFGPFIITNKHLFRRNNGTLVVQSLHGVFKVKDTTTLQQHLVDGRDMIIIRMPKDFPPFPQKLKFREPQREERICLVTTNFQTKSMSSMVSDTSCTFPSGDGIFWKHWIQTKDGQCGSPLVSTRDGFIVGIHSASNFTNTNNYFTSVPKNFMELLTNQEAQQWVSGWRLNADSVLWGGHKVPMVKPEEPFQPVKEATQL [F218P]
area with substrate ANLYFQS: 0.0586
area with substrate CNLYFQS: 0.0381
area with substrate DNLYFQS: 0.0641
area with substrate GNLYFQS: 0.0582
area with substrate HNLYFQS: 0.0725
area with substrate INLYFQS: 0.0579
area with substrate KNLYFQS: 0.0617
area with substrate LNLYFQS: 0.0512
area with substrate MNLYFQS: 0.0578
area with substrate NNLYFQS: 0.0594
area with substrate SNLYFQS: 0.0652
area with substrate TNLYFQS: 0.054
area with substrate WNLYFQS: 0.0538
area with substrate YNLYFQS: 0.0433

MGESLFKGPRDYNPISSSICHLTNESDGHTTSLYGIGFGPFIITNKLLFRRNNGTLVVQSLHGVFKVKDTTTLQQHLVDGRDMIIIRMPKDFPPFPQKLKFREPQREERICLVTTNFQTKSMSSMVSDTSCTFPSGDGIFWKHWIQTKDGQCGSPLVSTRDGFIVGIHSASNFTNTNNYFTSVPKNFMELLTNQEAQQWVSGWRLNADSVLWGGHKVFMVKPEEPFQPVKEATQL [H47L]
area with substrate ANLYFQS: 0.0492
area with substrate CNLYFQS: 0.0597
area with substrate DNLYFQS: 0.0575
area with substrate FNLYFQS: 0.065
area with substrate GNLYFQS: 0.0646
area with substrate HNLYFQS: 0.0681
area with substrate KNLYFQS: 0.0652
area with substrate LNLYFQS: 0.0577
area with substrate MNLYFQS: 0.0513
area with substrate NNLYFQS: 0.0456
area with substrate PNLYFQS: 0.0508
area with substrate QNLYFQS: 0.051
area with substrate RNLYFQS: 0.0656
area with substrate SNLYFQS: 0.0752
area with substrate TNLYFQS: 0.0655
area with substrate YNLYFQS: 0.0569

MGESLFKGPRDYNPISSSICHLTNEKDGHTTSLYGIGFGPFIITNKHLFRRNNGTLVVQSLHGVFKVKDTTTLQQHLVDGRDMIIIRMPKDFPPFPQKLKFREPQREERICLVTTNFQTKSMSSMVSDTSCTFPSGDGIFWKHWIQTKDGQCGSPLVSTRDGFIVGIHSASNFTNTNNYFTSVPKNFMELLTNQEAQQWVSGWRLNADSVLWGGHKVFMVKPEEPFQPVKEATQL [S26K]
area with substrate ANLYFQS: 0.0674
area with substrate CNLYFQS: 0.0589
area with substrate DNLYFQS: 0.0493
area with substrate HNLYFQS: 0.0592
area with substrate INLYFQS: 0.0583
area with substrate LNLYFQS: 0.0551
area with substrate MNLYFQS: 0.0814
area with substrate NNLYFQS: 0.0455
area with substrate PNLYFQS: 0.0563
area with substrate SNLYFQS: 0.0593
area with substrate VNLYFQS: 0.0416
area with substrate WNLYFQS: 0.0593
area with substrate YNLYFQS: 0.0517

MGESLFKGPRDYNPISSSICHLTNESDGHTTSLYGIGFGPFIITNKHLFRRNNGTDVVQSLHGVFKVKDTTTLQQHLVDGRDMIIIRMPKDFPPFPQKLKFREPQREERICLVTTNFQTKSMSSMVSDTSCTFPSGDGIFWKHWIQTKDGQCGSPLVSTRDGFIVGIHSASNFTNTNNYFTSVPKNFMELLTNQEAQQWVSGWRLNADSVLWGGHKVFMVKPEEPFQPVKEATQL [L56D]
area with substrate ANLYFQS: 0.0318
area with substrate CNLYFQS: 0.0308
area with substrate DNLYFQS: 0.0396
area with substrate FNLYFQS: 0.0391
area with substrate GNLYFQS: 0.0397
area with substrate HNLYFQS: 0.0385
area with substrate INLYFQS: 0.0314
area with substrate KNLYFQS: 0.0529
area with substrate LNLYFQS: 0.0504
area with substrate MNLYFQS: 0.0515
area with substrate NNLYFQS: 0.0355
area with substrate PNLYFQS: 0.0436
area with substrate QNLYFQS: 0.0477
area with substrate SNLYFQS: 0.033
area with substrate TNLYFQS: 0.0426
area with substrate VNLYFQS: 0.0456
area with substrate WNLYFQS: 0.0419
area with substrate YNLYFQS: 0.0489

MGESLFKGPRDYNPISSSICHLTNESDGHTTSLYGIGFGPFIITNKHLFRRNNGTLVVQSLHGVFKVKDTTTYQQHLVDGRDMIIIRMPKDFPPFPQKLKFREPQREERICLVTTNFQTKSMSSMVSDTSCTFPSGDGIFWKHWIQTKDGQCGSPLVSTRDGFIVGIHSASNFTNTNNYFTSVPKNFMELLTNQEAQQWVSGWRLNADSVLWGGHKVFMVKPEEPFQPVKEATQL [L73Y]
area with substrate ANLYFQS: 0.0618
area with substrate CNLYFQS: 0.0309
area with substrate DNLYFQS: 0.0699
area with substrate GNLYFQS: 0.0604
area with substrate HNLYFQS: 0.0521
area with substrate INLYFQS: 0.0397
area with substrate KNLYFQS: 0.0571
area with substrate LNLYFQS: 0.0519
area with substrate MNLYFQS: 0.0481
area with substrate NNLYFQS: 0.0827
area with substrate PNLYFQS: 0.0552
area with substrate RNLYFQS: 0.0896
area with substrate SNLYFQS: 0.0536
area with substrate TNLYFQS: 0.0656
area with substrate VNLYFQS: 0.0638
area with substrate WNLYFQS: 0.0562
area with substrate YNLYFQS: 0.0849

MGESLFKGPRDYNPISSSICHLTNESDGHTTSLYGIGFGPFIITNKHLFRRNNGTLVVQSLHGVFKVKDTTTLQQHLVDGRDMIIIRMPKDFPPFPQKLKFREPQREERICLVTTNFQTKSQSSMVSDTSCTFPSGDGIFWKHWIQTKDGQCGSPLVSTRDGFIVGIHSASNFTNTNNYFTSVPKNFMELLTNQEAQQWVSGWRLNADSVLWGGHKVFMVKPEEPFQPVKEATQL [M122Q]
area with substrate ANLYFQS: 0.0512
area with substrate CNLYFQS: 0.0704
area with substrate DNLYFQS: 0.0938
area with substrate FNLYFQS: 0.0649
area with substrate GNLYFQS: 0.0688
area with substrate HNLYFQS: 0.0667
area with substrate INLYFQS: 0.0604
area with substrate KNLYFQS: 0.0758
area with substrate NNLYFQS: 0.0616
area with substrate PNLYFQS: 0.0734
area with substrate SNLYFQS: 0.0479
area with substrate TNLYFQS: 0.0671
area with substrate VNLYFQS: 0.069
area with substrate WNLYFQS: 0.0389
area with substrate YNLYFQS: 0.0607

MGESLFKGPRDYNPISSSICHLTNESDGHTTSLYGIGFGPFIITNKHLFRRNNGTLVVQSLHGVFKVKDTTTLQQHLVDGRDMIIIRMPKDFPPFPQKLLFREPQREERICLVTTNFQTKSMSSMVSDTSCTFPSGDGIFWKHWIQTKDGQCGSPLVSTRDGFIVGIHSASNFTNTNNYFTSVPKNFMELLTNQEAQQWVSGWRLNADSVLWGGHKVFMVKPEEPFQPVKEATQL [K100L]
area with substrate ANLYFQS: 0.0507
area with substrate CNLYFQS: 0.0676
area with substrate DNLYFQS: 0.0817
area with substrate FNLYFQS: 0.0633
area with substrate INLYFQS: 0.0767
area with substrate LNLYFQS: 0.068
area with substrate MNLYFQS: 0.0739
area with substrate PNLYFQS: 0.0752
area with substrate SNLYFQS: 0.0785
area with substrate TNLYFQS: 0.0713
area with substrate WNLYFQS: 0.0598
